According to paper PMC4336329 (PLoS ONE, 2015):
In all, about 310,000 compounds went through this assay and about 14,000 (4.5%) showed an effect of 50% or more. Effects have a minus sign here. Some of the results follow.

The compounds below were run against human ether-à-go-go-related gene (hERG) potassium channel (human, UniProt Q12809) (assay: primary screen, population patch clamp on CHO cells stably expressing hERG).
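Further: peak tail current of the secondary pulse compared with the same well before compound.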

Sequence of human ether-à-go-go-related gene (hERG) potassium channel (Q12809 whole entry, looked up): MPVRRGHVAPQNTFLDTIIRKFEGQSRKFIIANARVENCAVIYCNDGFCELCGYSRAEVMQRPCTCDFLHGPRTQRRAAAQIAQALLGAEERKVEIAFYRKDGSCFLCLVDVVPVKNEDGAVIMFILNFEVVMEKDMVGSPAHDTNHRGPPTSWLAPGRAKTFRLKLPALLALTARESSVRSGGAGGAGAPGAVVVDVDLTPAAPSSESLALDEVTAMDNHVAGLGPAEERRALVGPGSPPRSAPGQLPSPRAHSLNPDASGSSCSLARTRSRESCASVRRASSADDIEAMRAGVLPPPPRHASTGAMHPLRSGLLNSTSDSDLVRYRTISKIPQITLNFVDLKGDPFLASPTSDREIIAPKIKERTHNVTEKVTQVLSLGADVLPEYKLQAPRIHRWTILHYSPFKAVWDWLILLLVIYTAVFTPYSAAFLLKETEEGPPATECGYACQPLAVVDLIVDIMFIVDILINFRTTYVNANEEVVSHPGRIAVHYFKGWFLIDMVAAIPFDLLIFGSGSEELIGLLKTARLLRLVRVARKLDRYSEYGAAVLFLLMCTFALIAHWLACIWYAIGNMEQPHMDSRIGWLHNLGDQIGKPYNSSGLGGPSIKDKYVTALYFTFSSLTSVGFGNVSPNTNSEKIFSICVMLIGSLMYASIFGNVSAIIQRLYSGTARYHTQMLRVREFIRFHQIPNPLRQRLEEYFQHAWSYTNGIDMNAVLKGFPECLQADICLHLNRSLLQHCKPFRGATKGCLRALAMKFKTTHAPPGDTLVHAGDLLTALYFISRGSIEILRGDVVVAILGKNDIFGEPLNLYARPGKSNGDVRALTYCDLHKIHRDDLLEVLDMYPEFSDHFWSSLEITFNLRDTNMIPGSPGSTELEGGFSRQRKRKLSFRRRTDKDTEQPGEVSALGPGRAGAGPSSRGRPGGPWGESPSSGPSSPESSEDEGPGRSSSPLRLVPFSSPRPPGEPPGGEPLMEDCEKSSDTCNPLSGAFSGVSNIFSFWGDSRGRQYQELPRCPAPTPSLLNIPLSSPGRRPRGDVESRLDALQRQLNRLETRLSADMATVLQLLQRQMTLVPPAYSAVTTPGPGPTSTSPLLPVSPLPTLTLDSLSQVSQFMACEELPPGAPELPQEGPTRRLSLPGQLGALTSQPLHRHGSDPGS

SMILES	hERG current change (%, negative = inhibition) at 10uM
COc1ccc2nc(NC3=NCCN3)sc2c1	-0.215%
COc1cccc2cc(C(=O)N3CCc4ccccc4C3)c(=O)oc12	11.1%
O=C(C1CC(c2ccc(F)cc2)=NO1)N1CCCCC1 (stereo not shown)	4.94%
O=C1NC(=O)C(CCc2ccncc2)(CCc2ccncc2)C(=O)N1Cc1ccc(F)cc1	-76.6%
NNC(=O)c1cc2ccccc2[nH]1	15.3%
CC(C)CN(C(=O)COC(=O)c1nc(Cl)ccc1Cl)C1CCS(=O)(=O)C1 (stereo not shown)	14%
COc1ccc(OC)c(NC(=S)NCCN2CCOCC2)c1	8.88%
O=C(NCc1ccncc1)C(=O)N/N=C/c1ccccc1OCc1ccccc1	8.91%
CCOC(=O)N1CCC(N2Cc3cccc(C(=O)Nc4ccccc4OC)c3C2=O)CC1	-79.2%
Cc1ccc(/C=C/c2ccc(N(C)C)cc2)[n+](C)c1.[I-]	-25.5%
Cc1ccc(NC(=O)N(CCCN2CCOCC2)Cc2cc3cc4c(cc3[nH]c2=O)OCO4)cc1	-42%
Cc1csc(/N=C/N(C)C)c1C#N	9.31%
CCOc1ncccc1C(=O)OCC(=O)NCc1ccc2c(c1)OCO2	1.22%
O=c1c2ccccc2nc(-c2ccccc2Cl)n1-c1ccc(O)cc1	5.92%
O=C(O)[C@H]1Cc2ccccc2CN1S(=O)(=O)c1ccc(F)cc1	19%
Cc1cc(/C=N/Nc2nc(N3CCOCC3)nc(N3CCOCC3)n2)c(C)n1-c1ccccc1	7.66%
Cc1ccc(C(=O)Nc2ccc3c(c2)OCO3)cc1S(=O)(=O)N1CCOCC1	-33.1%
O=C(Nc1nnc(-c2ccc3c(c2)CCCC3)o1)c1ccccc1	-14.6%
CN(c1ccccc1)S(=O)(=O)c1cccc(NC(=O)Cc2n[nH]c(=O)c3ccccc23)c1	-30.9%
CN1CCN(C(=O)c2ccc3c(=O)n(CCc4ccccc4)c(=S)[nH]c3c2)CC1	-5.84%
COc1cccc(C(=O)/C=C/Nc2cc(C)ccc2O)c1	-6.19%
COc1ccc(NC(=O)CN(C)S(=O)(=O)c2ccc(C)cc2)c([N+](=O)[O-])c1	-12.8%

SMILES	hERG current change (%, negative = inhibition) at 10uM
O=C(O)c1ccc(CSc2nnc(-c3ccco3)n2-c2ccccc2)cc1	22.6%
COc1ccc2cc(CCNC(=O)c3ccc(S(=O)(=O)N4CCCC4)cc3)c(=O)[nH]c2c1	-8.62%
Cc1ccc(C)c(S(=O)(=O)N2CCC(c3nc4c(nnn4Cc4ccc(F)cc4)c(=O)[nH]3)CC2)c1	2.18%
Cc1csc(NC(=O)CSc2nc(C(C)C)nc3ccccc23)n1	9.99%
COc1cc(NC(=O)c2ccc(Cl)cc2)c(Cl)cc1NC(=O)c1cccnc1	1.74%
N#CC(c1ccc(Cl)nn1)c1c(F)cccc1Cl (stereo not shown)	9.59%
CCCN1C2CCCC1CC(NC(=O)c1ccccc1Br)C2 (stereo not shown)	-27%
NC(=O)C1CC(=O)N(c2ccc(OCc3ccccc3Cl)cc2)C1 (stereo not shown)	-6.43%
COc1ccc(C2CC(c3ccc(Br)cc3)=NN2C(=O)c2cccnc2)cc1 (stereo not shown)	-30.6%
COc1ccc2c(c1)c1nc3n(c(=O)c1n2CC(=O)Nc1ccccc1)CCCS3	31.5%
Cc1cccc(C(=O)NC2=NCCS2)c1	8.03%
Cc1ccc(NC(=O)CCNS(=O)(=O)c2ccc3c(c2)CCC(=O)N3)c(Br)c1	-20.5%
Cc1ccc(-c2nn(-c3ccccc3)cc2/C=C/C(=O)Nc2cccc(S(N)(=O)=O)c2)cc1	9.23%
COc1ccc(OC)c(Nc2ncnc3ccccc23)c1.Cl	-18.6%
COc1ccc(NC(=O)CCC(=O)OCc2ccc(C(=O)Oc3ccc(Cl)cc3)cc2)cc1	0.558%
O=C(CN1C(=O)/C(=C\c2cccc(Br)c2)Oc2ccccc21)NCCCN1CCOCC1	-15.6%
CCN(CC)S(=O)(=O)c1ccc(OC)c(NC(=S)Nc2cc(C)ccc2C)c1	-6.34%
O=S(=O)(Nc1ccc(S(=O)(=O)Nc2nccs2)cc1)c1ccc2c(c1)OCCO2	-19.2%
O=C(CSc1nnc(CNC(=O)c2c(F)cccc2Cl)o1)c1ccccc1	-21.5%
S=C(Nc1ccc(Cl)c(Cl)c1)N1CCN(c2ccccn2)CC1	13.8%
Cc1cc(-c2ccco2)n2c(nc3ccccc32)c1C#N	-25.9%
